Results reported in the supplement of paper PMC4967469.
Lines with a small IC50 respond at low doses; a fit beyond the top or the lowest dose is shown as a bound at that dose. AUC sums up the same curve from the lowest dose to the 256-fold higher top dose; the more sensitive the line, the further below 1. For some of these results: Where the top dose is marked as inferred, it was calculated from the reported fits. For some of these results: Drugs with an entry number were screened twice under separate entries, and the two screens often disagree.

Tests used:
Assay in all cases: Viability of human cancer cell lines after 72 h of drug (GDSC screen)
CUDC-101 = compound: C#Cc1cccc(Nc2ncnc3cc(OC)c(OCCCCCCC(=O)NO)cc23)c1 [CUDC-101]; conditions: top dose 5.12 µM; top dose inferred
Procedure: (§1)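 Human cancer cell lines in 384-well plates, medium with 10% serum, drug for 72 h over a 256-fold dose range (nine 2-fold or five 4-fold steps up to the top dose). Adherent lines were fixed and stained with the nucleic acid dye Syto60, suspension lines read with resazurin; signal relative to control wells, capped at 0 and 100%. One two-parameter sigmoid per drug and line, fitted in a mixed model over all curves with the slope shared within a line.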

AC220 = compound: CC(C)(C)c1cc(NC(=O)Nc2ccc(-c3cn4c(n3)sc3cc(OCCN5CCOCC5)ccc34)cc2)no1 [AC220]; conditions: top dose 1.024 µM; top dose inferred
Procedure: as §1

RDEA119 = compound: COc1cc(F)c(F)c(Nc2ccc(I)cc2F)c1NS(=O)(=O)C1(C[C@H](O)CO)CC1 [RDEA119]; conditions: top dose 5 µM, top dose inferred
Procedure: as §1

JNK-9L = compound: Fc1cc(-c2ccnc(Nc3ccc(-n4cnc(N5CCOCC5)n4)cc3)n2)cc(N2CCOCC2)c1 [JNK-9L]; conditions: top dose 5.12 µM; top dose inferred
Procedure: as §1

OSU-03012 = compound: NCC(=O)Nc1ccc(-n2nc(C(F)(F)F)cc2-c2ccc3c(ccc4ccccc43)c2)cc1 [OSU-03012]; conditions: top dose 16 µM; top dose inferred
Procedure: as §1

5-Fluorouracil = compound: O=c1[nH]cc(F)c(=O)[nH]1 [5-Fluorouracil]; conditions: top dose 32 µM; top dose inferred
Procedure: as §1

QS11 = compound: OC[C@H](Cc1ccccc1)Nc1nc(Oc2ccc3c(c2)CCC3)nc2c1ncn2Cc1ccc(-c2ccccc2)cc1 [QS11]; conditions: top dose 10.24 µM
Procedure: as §1

Cell Line	AUC (CUDC-101)	IC50 (CUDC-101) [µM]	AUC (AC220)	IC50 (AC220) [µM]	AUC (RDEA119; screen: GDSC drug entry 1014)	IC50 (RDEA119; screen: GDSC drug entry 1014) [µM]	AUC (RDEA119; screen: GDSC drug entry 1526)	IC50 (RDEA119; screen: GDSC drug entry 1526) [µM]	AUC (JNK-9L)	IC50 (JNK-9L) [µM]	AUC (OSU-03012)	IC50 (OSU-03012) [µM]	AUC (5-Fluorouracil)	IC50 (5-Fluorouracil) [µM]	AUC (QS11)	IC50 (QS11) [µM]
TT (thyroid, adherent)	0.932	> 5.12	0.982	> 1.02	0.973	> 5	0.965	> 5	0.711	1.61	0.868	> 16	0.979	> 32	0.904	> 10.2
TUR (B-cell lymphoma, suspension)	0.433	0.213	0.975	> 1.02	0.91	> 5	0.948	> 5	0.509	0.338	0.777	5.92	0.426	1.28	0.919	> 10.2
TYK-nu (ovary, adherent)	0.537	0.407	0.971	> 1.02	0.565	0.478	0.723	1.41	0.647	0.845	0.738	5.05	0.925	> 32	0.923	> 10.2
U031 (kidney, adherent)	0.871	> 5.12	0.983	> 1.02	0.985	> 5	0.782	2.16	0.506	0.332	0.762	5.93	0.85	25.6	0.976	> 10.2
U-87-MG (glioma, adherent)	0.774	2.36	0.984	> 1.02	0.873	> 5	0.873	> 5	0.735	1.71	0.82	11.3	0.88	> 32	0.958	> 10.2
U-118-MG (glioma, adherent)	0.711	1.4	0.954	> 1.02	0.854	4.97	0.924	> 5	0.877	> 5.12	0.872	> 16	0.986	> 32	0.942	> 10.2
U-698-M (B-cell leukaemia, suspension)	0.684	1.04	0.984	> 1.02	0.985	> 5	0.986	> 5	0.463	0.254	0.654	2.67	0.813	17.3	0.879	> 10.2
UACC-893 (breast, adherent)	0.795	3.34	0.959	> 1.02	0.913	> 5	0.876	> 5	0.869	> 5.12	0.932	> 16	0.906	> 32	0.968	> 10.2
UM-UC-3 (bladder, adherent)	0.621	0.672	0.981	> 1.02			0.85	3.42	0.566	0.479	0.776	6	0.753	10.1	0.912	> 10.2
VA-ES-BJ (soft tissue, adherent)	0.818	3.1	0.986	> 1.02	0.873	> 5	0.95	> 5	0.432	0.207	0.677	3.21	0.93	> 32	0.772	4.19
VAL (B-cell lymphoma, suspension)	0.257	0.0643	0.975	> 1.02	0.985	> 5			0.627	0.72	0.68	3.18	0.553	2.79	0.831	6.54
VCaP (prostate, adherent)	0.288	0.0782	0.965	> 1.02	0.984	> 5	0.986	> 5	0.696	1.17	0.83	10.6	0.926	> 32	0.889	> 10.2
VM-CUB-1 (bladder, adherent)	0.603	0.606	0.989	> 1.02	0.828	2.93	0.849	3.57	0.657	0.856	0.784	6.54	0.971	> 32	0.973	> 10.2
VMRC-RCZ (kidney, adherent)	0.814	3.38	0.98	> 1.02	0.851	4.83	0.896	> 5	0.55	0.448	0.688	3.7	0.966	> 32	0.869	> 10.2
WIL2-NS (lymphoid neoplasm, suspension)	0.081	< 0.02	0.966	> 1.02	0.991	> 5			0.55	0.426	0.488	0.932	0.419	1.25	0.798	3.87
WM35 (melanoma, adherent)	0.452	0.237	0.983	> 1.02	0.475	0.267	0.194	0.0381	0.472	0.268	0.789	7.16	0.69	6.87	0.928	> 10.2
WM278 (melanoma, adherent)	0.735	1.65	0.983	> 1.02			0.542	0.412	0.468	0.259	0.766	6.65	0.979	> 32	0.935	> 10.2
WM793B (melanoma, adherent)	0.693	1.19	0.971	> 1.02	0.796	2.63	0.786	2.42	0.444	0.221	0.707	4.11	0.934	> 32	0.935	> 10.2
